The supplement of paper PMC4604168 (melanoma cell lines)
The list shows a part of the results. Many values rest on one well or one pass, so single values are uncertain.

Experiments:
Experiment in all cases: cell count relative to DMSO control; melanoma cells; higher = more viable cells
Settings in all cases: library dose: low library concentration; 72 h
MZ2-MEL = system: MZ2-MEL
MeWo = system: MeWo
RPMI7951 = system: RPMI7951
RVH-421 = system: RVH-421
SkMel28 = system: SkMel28
SkMel2 = system: SkMel2
SkMel30 = system: SkMel30
SkMel5 = system: SkMel5
UACC257 = system: UACC257
UACC62 = system: UACC62
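Also: cell number obtained by counting DAPI-stained nuclei in high-throughput microscope images with image analysis software, screen run in 1,536-well plates.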

Row | SMILES | cell count (MZ2-MEL) | cell count (MeWo) | cell count (RPMI7951) | cell count (RVH-421) | cell count (SkMel28) | cell count (SkMel2) | cell count (SkMel30) | cell count (SkMel5) | cell count (UACC257) | cell count (UACC62)
1 | CS(=O)(=O)c1ccc(C(=O)Nc2ccc(Cl)c(-c3ccccn3)c2)c(Cl)c1 [vismodegib] + COc1cc2ncnc(Nc3ccc(Oc4ccccc4)cc3)c2cc1OC [SrcI1] (first compound 1 µM, partner dose 2 µM) | 90.8% | 104% | 106% | 111% | 96.7% | 106% | 109% | 95% | 97.6% | 96.9%
2 | CS(=O)(=O)c1ccc(C(=O)Nc2ccc(Cl)c(-c3ccccn3)c2)c(Cl)c1 [vismodegib] + CCc1ccc(CCOc2ccc(CC3SC(=O)NC3=O)cc2)nc1 [pioglitazone] (first compound 1 µM, partner dose 2 µM) | 103% | 103% | 111% | 112% | 99.2% | 97.4% | 103% | 104% | 114% | 95.4%
3 | C=C(c1ccc(C(=O)O)cc1)c1cc2c(cc1C)C(C)(C)CCC2(C)C [Bexarotene] + COc1ccc(COc2ccc(Cc3cnc(N)nc3N)cc2OC)cc1 [GW2580] (first compound 2 µM, partner dose 1 µM) | 93.1% | 86.3% | 92.4% | 158% | 83.8% | 87.2% | 117% | 85.5% | 115% | 104%
4 | CCCS(=O)(=O)Nc1ccc(F)c(C(=O)c2c[nH]c3ncc(Cl)cc23)c1F + O=S(=O)(c1ccccc1)N(CC(F)(F)F)c1ccc(C(O)(C(F)(F)F)C(F)(F)F)cc1 [T0901317] (first compound 0.08 µM, partner dose 1.4 µM) | 84.7% | 100% | 123% | 120% | 76.8% | 102% | 97.1% | 89% | 65.2% | 54.1%
5 | NC1(c2ccc(-c3nc4ccn5c(=O)[nH]nc5c4cc3-c3ccccc3)cc2)CCC1 + CC1(C)NC(=O)N(c2ccc([N+](=O)[O-])c(C(F)(F)F)c2)C1=O [nilutamide] (first compound 0.4 µM, partner dose 1 µM) | 102% | 88.6% | 89.1% | 108% | 71.9% | 89% | 98.1% | 104% | 90.8% | 72%
6 | C=C(c1ccc(C(=O)O)cc1)c1cc2c(cc1C)C(C)(C)CCC2(C)C [Bexarotene] + O=C(CCCCCCC(=O)Nc1ccccc1)NO [vorinostat] (first compound 2 µM, partner dose 0.08 µM) | 99.4% | 89.4% | 77.6% | 114% | 68.8% | 104% | 137% | 98.9% | 98.9% | 87.5%
7 | CCCS(=O)(=O)Nc1ccc(F)c(C(=O)c2c[nH]c3ncc(Cl)cc23)c1F + COc1ccc(COc2ccc(Cc3cnc(N)nc3N)cc2OC)cc1 [GW2580] (first compound 0.08 µM, partner dose 1 µM) | 89.6% | 108% | 106% | 97.1% | 84.8% | 104% | 91.9% | 108% | 101% | 65.7%
8 | CS(=O)(=O)c1ccc(C(=O)Nc2ccc(Cl)c(-c3ccccn3)c2)c(Cl)c1 [vismodegib] + COc1cc(Nc2ncc(F)c(Nc3ccc4c(n3)NC(=O)C(C)(C)O4)n2)cc(OC)c1OC [Tamatinib] (first compound 1 µM, partner dose 0.4 µM) | 88.8% | 84.4% | 77.2% | 110% | 92.6% | 89.3% | 93.2% | 88.5% | 69.7% | 78.7%
9 | NC1(c2ccc(-c3nc4ccn5c(=O)[nH]nc5c4cc3-c3ccccc3)cc2)CCC1 + O=C(Nc1ccccc1)c1cc([N+](=O)[O-])ccc1Cl [GW9662] (first compound 0.4 µM, partner dose 2 µM) | 88.8% | 94.8% | 85.3% | 107% | 88.9% | 101% | 110% | 81.1% | 79.1% | 72.8%
10 | C=C(c1ccc(C(=O)O)cc1)c1cc2c(cc1C)C(C)(C)CCC2(C)C [Bexarotene] + O=S(=O)(c1ccccc1)N(CC(F)(F)F)c1ccc(C(O)(C(F)(F)F)C(F)(F)F)cc1 [T0901317] (first compound 2 µM, partner dose 1.4 µM) | 107% | 82.4% | 89.8% | 109% | 70.8% | 76.6% | 93.6% | 95.3% | 100% | 93.7%
11 | C=C(c1ccc(C(=O)O)cc1)c1cc2c(cc1C)C(C)(C)CCC2(C)C [Bexarotene] + O=C(O)c1ccc(-c2c[nH]c3ncc(-c4ccccc4)cc23)cc1C1CCCC1 [GSK650394] (first compound 2 µM, partner dose 0.16 µM) | 102% | 96.7% | 85.5% | 122% | 78.8% | 96.5% | 111% | 90.1% | 123% | 92.5%
12 | NC1(c2ccc(-c3nc4ccn5c(=O)[nH]nc5c4cc3-c3ccccc3)cc2)CCC1 + Cc1cc([N+](=O)[O-])ccc1NS(=O)(=O)c1cc(Cl)ccc1Cl [FH535] (first compound 0.4 µM, partner dose 1 µM) | 88% | 101% | 100% | 72.2% | 64.5% | 84.2% | 86.5% | 70.8% | 66.8% | 70.9%
13 | NC1(c2ccc(-c3nc4ccn5c(=O)[nH]nc5c4cc3-c3ccccc3)cc2)CCC1 + CCN(CC)CCCCNc1ncc2cc(-c3cc(OC)cc(OC)c3)c(NC(=O)NC(C)(C)C)nc2n1 [PD173074] (first compound 0.4 µM, partner dose 0.1 µM) | 93.4% | 92.4% | 101% | 97.9% | 73.6% | 82.6% | 79.4% | 89.7% | 71.8% | 72.2%
14 | CN(c1ncccc1CNc1nc(Nc2ccc3c(c2)CC(=O)N3)ncc1C(F)(F)F)S(C)(=O)=O + O=c1cc(-c2cccc3c2Sc2ccccc2S3)oc(N2CCOCC2)c1 [KU55933] (first compound 0.08 µM, partner dose 1 µM) | 97.3% | 98.9% | 63.5% | 106% | 84.3% | 98.1% | 107% | 81.3% | 66.5% | 74.8%
15 | CCCS(=O)(=O)Nc1ccc(F)c(C(=O)c2c[nH]c3ncc(Cl)cc23)c1F + CCCCCCCCCCCC1=C(O)C(=O)C=C(O)C1=O [Embelin] (first compound 0.08 µM, partner dose 1.2 µM) | 90.7% | 112% | 104% | 88.7% | 97.9% | 103% | 97.4% | 118% | 95% | 78.2%
16 | NC1(c2ccc(-c3nc4ccn5c(=O)[nH]nc5c4cc3-c3ccccc3)cc2)CCC1 + NCC(=O)Nc1ccc(-n2nc(C(F)(F)F)cc2-c2ccc3c(ccc4ccccc43)c2)cc1 [OSU03012] (first compound 0.4 µM, partner dose 1 µM) | 97.2% | 67% | 99% | 114% | 74.1% | 69% | 58.6% | 93.6% | 106% | 90.1%
17 | CS(=O)(=O)c1ccc(C(=O)Nc2ccc(Cl)c(-c3ccccn3)c2)c(Cl)c1 [vismodegib] + O=C1NC(=O)/C(=C/c2ccc(-c3ccc(F)cc3O)o2)S1 [AS252424] (first compound 1 µM, partner dose 1 µM) | 102% | 88.2% | 90.8% | 91.1% | 101% | 100% | 94.8% | 96.3% | 95.1% | 95.2%
18 | NC1(c2ccc(-c3nc4ccn5c(=O)[nH]nc5c4cc3-c3ccccc3)cc2)CCC1 + N#Cc1c(O)c2c(-c3ccc(-c4ccccc4O)cc3)csc2[nH]c1=O [A769662] (first compound 0.4 µM, partner dose 2 µM) | 96.2% | 76.6% | 87.3% | 80.4% | 63.2% | 84.5% | 90.2% | 94% | 91.9% | 84.7%
19 | CS(=O)(=O)c1ccc(C(=O)Nc2ccc(Cl)c(-c3ccccn3)c2)c(Cl)c1 [vismodegib] + O=C(O)C(=O)Nc1sc2c(c1C(=O)O)CCNC2 [TCS401] (first compound 1 µM, partner dose 1.66667 µM) | 102% | 122% | 122% | 118% | 94.9% | 111% | 100% | 96.2% | 92.8% | 99.3%
20 | CN(c1ncccc1CNc1nc(Nc2ccc3c(c2)CC(=O)N3)ncc1C(F)(F)F)S(C)(=O)=O + CC(C)(C)c1cnc(CSc2cnc(NC(=O)C3CCNCC3)s2)o1 [SNS-032] (first compound 0.08 µM, partner dose 0.01 µM) | 93% | 91.5% | 80.5% | 121% | 65% | 86.9% | 108% | 67.7% | 45.3% | 65.6%
21 | NC1(c2ccc(-c3nc4ccn5c(=O)[nH]nc5c4cc3-c3ccccc3)cc2)CCC1 + Oc1nc(-c2ccc(C(F)(F)F)cc2)nc2c1CSCC2 [XAV939] (first compound 0.4 µM, partner dose 2 µM) | 97% | 95.6% | 91.7% | 137% | 70.3% | 93.3% | 92.5% | 81.2% | 83.9% | 90.6%
22 | C=C(c1ccc(C(=O)O)cc1)c1cc2c(cc1C)C(C)(C)CCC2(C)C [Bexarotene] + Oc1nc(-c2ccc(C(F)(F)F)cc2)nc2c1CSCC2 [XAV939] (first compound 2 µM, partner dose 2 µM) | 95% | 92% | 64.8% | 82.4% | 93.1% | 95.7% | 133% | 92.1% | 88.6% | 89.1%
23 | C=C(c1ccc(C(=O)O)cc1)c1cc2c(cc1C)C(C)(C)CCC2(C)C [Bexarotene] + OCCn1cc(-c2cnc3nnn(Cc4ccc5ncccc5c4)c3n2)cn1 [PF04217903] (first compound 2 µM, partner dose 1 µM) | 107% | 92.7% | 96.2% | 91.5% | 83.1% | 88.9% | 109% | 77.5% | 121% | 90.5%
